The text below walks through data of the supplement of paper PMC11417369.

This is one part of the list.

In this test the test system is PfHDP1 homeodomain (GST-tagged). The test can be described thus: gcPBM binding intensity (ln(normalized median fluorescence intensity)); higher = stronger DNA binding. The method, boiled down: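 Binding intensity values are the highest Masliner-normalised natural-log median intensity among replicate spots of either probe orientation. The binding step lasted 1 h in 1× PBS with 1% milk, 0.2 mg/ml BSA, 0.5% salmon testes DNA and 0.03% Triton X-100, using GST-tagged P. falciparum DNA-binding domains expressed in E. coli on an Agilent 4 × 180k array of primer-extended double-stranded 36-bp intergenic genomic probes plus negative controls. Alexa488 anti-GST antibody and a 488 nm scan detected bound protein.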
For “TGTGTAATTATATATAAGGAGAAAGAATTCATTTTT [CACACA_negctrl_site670]”, the “gcPBM binding intensity (ln)” value turned out to be 6.3.

For “AAAAAAAAATTTTTAAAATTTAGAAAATTTAAAAAA [GTGCAC_negctrl_site649]”, the “gcPBM binding intensity (ln)” value was found to be 5.66. The same measure for “TAATAATGCAACCTCTGTACACAACATTATATCCAT [XGTACX_site7596]”: 8.78; for “TATATATAAGCGTGTACACATTCTGAGTGTTGTATA [CACACA_site4502]”: 7.02; for “GATTATACAAAATATACACACGTGTAGACAAATATT [CACACA_site4785]”: 6.89. Turning to “ATAATATTATTATAATGTACATATTTCGATATAAAT [XGTACX_site8808]”, the “gcPBM binding intensity (ln)” value came out at 6.74. For “ATATTTAATGTTAATTGTACATATTATATATATATA [XGTACX_site6095]” the value was 8.49.

For the sequence “AAAAAAATATATATTACACACATATATACCTATATA [CACACA_site5688]”, the “gcPBM binding intensity (ln)” value amounted to 6.62. For “ATATATATTAATAGGTGTACATATAAAGTGTTATGT [XGTACX_site5464]” the value was 6.83. The same measure for “TATGTGAATATAATCACACACAATACGGAAACCCAC [CACACA_site2725]”: 7.04. The same measure for “AAAGTCTCATTAAAATGTACAAAATTTTCAGCTGTA [XGTACX_site6296]”: 6.15. For “TTATATATAAACATAAAAAGAAATATATTATGTATA [CACACA_negctrl_site667]”, the “gcPBM binding intensity (ln)” value turned out to be 6.22. The same measure for “TAATTTTTAATTGTAGCATGCAGTATTTTTAAATAT [TGCATGCA_site140]”: 6.52; for “AATACATTGTCAAATTGTACAAATTATAGAACTATT [XGTACX_site2222]”: 6.47; for “CCATAAAAAGGATACACACACACACCCACATATATA [CACACA_site903]”: 6.76. For “TGTTTTTATATATATGCACACAATGTACAAGTATAC [CACACA_site3529]”, the “gcPBM binding intensity (ln)” value came out at 10.4.

In the case of “AAAGGGGCATATATATGTACATATTATATATTTTGA [XGTACX_site2436]”, the “gcPBM binding intensity (ln)” value was 6.72. For “ATTATCCATGCATTTACACACACACCCAAAAAAATT [CACACA_site4101]” the value was 7.67; for “AAAAAAAAATATATATAAAATTAAAAAATGTAATAT [GTGCAC_negctrl_site581]”, 6.28; for “ATTAAAAAAAAAAGTATACACACTTCTTAATGTCAA [CACACA_site1244]”, 6.61. For “TTATATCCCGTCCTTTATTAAAAAAATTTTTTTTCT [TGCATGCA_negctrl_site582]” the value was 6.93. For “ATGGGTTGTTCAAATAGTACATATGTAGCCCACCAT [XGTACX_site3735]” the value was 6.54; for “TTTTTTTTTTTTTGTGCATGTAGATTTATTGTTATA [TGCATGCA_site582]”, 8.42; for “TTTAAATATATATTTAGTACTTATTCTTAAAATTTT [XGTACX_site624]”, 6.38. In the case of “AAAAAAGAATAGCACACACACATATATAAATATAAA [CACACA_site4518]”, the “gcPBM binding intensity (ln)” value was determined as 6.97. The same measure for “GTTACATACAGATACACACACATATATATATATATA [CACACA_site4652]”: 9.38; for “AATTATACATACATATATATATTTATATATATATAT [GTGCAC_negctrl_site462]”: 8.69; for “GTAGAGGATTAAGAATGTACACATAAATACATATTT [XGTACX_site8874]”: 6.3. The same measure for “TTAAAAATGATTGAATGTACAGATTAATATAATTTT [XGTACX_site7394]”: 6.08; for “GATCTACATGAAAGGACACACAAATATATATATATA [CACACA_site84]”: 9.07; for “ATAAATATGGAGCACACACACATAAACATACCTATA [CACACA_site6336]”: 7.15. The same measure for “TAATTTTTGAAACACACACACATATATATATATATA [CACACA_site94]”: 9.43; for “AAATATTATGTGGCAAGTACATAAAGAAAATGCTTA [XGTACX_site3356]”: 6.07; for “ATAATAAGGTTAAGCACACATATTACAGATATAACT [CACACA_site5791]”: 6.41. Take “AATAATAATAATAATAGTACATATTATGAATATGAT [XGTACX_site5730]”: the “gcPBM binding intensity (ln)” value came to 6.43.

Regarding “ATATATATTTTATTATGTACATATAAATATTACACA [XGTACX_site4062]”, the “gcPBM binding intensity (ln)” value was 6.69. The same measure for “GAAAAAATATATAAATGTACATATAATAATATCATA [XGTACX_site6788]”: 6.44; for “ATTATTTTTTTATGTTGTACATAATATTTTTTAAAA [XGTACX_site1666]”: 6.91.

As for “CTTAAAAATAACTGCACACAAAAATAAATACCTTAT [CACACA_site2793]”, the “gcPBM binding intensity (ln)” value was 7.67. For “TTCCAACATTGTTTTTGTACATAATTAACTGTTATT [XGTACX_site5224]” the value was 6.81; for “TAATATTTATAAAATAGTACACAGAAAAAGCATTTT [XGTACX_site8948]”, 6.67; for “ATATATATGGATGGACGTACGTATGTATGTAATTTC [XGTACX_site4135]”, 7.12. In the case of TAATAATTTTATAAAGTGCATAAAAATAAAAATTTT, the “gcPBM binding intensity (ln)” value amounted to 8.28. The same measure for “TTTTTTTTTTTTTTAATTAATTACCTTTGAATGTGT [CACACA_negctrl_site393]”: 6.31; for “TCGTATATGGATTTTGCACACAATTTTAATTTAAAT [CACACA_site4635]”: 10.7; for “ATGATTTGTCTGAAATGTACATATATATATATATAT [XGTACX_site5247]”: 9.24. The same measure for “AACAAATAAACAAAATTGGAAAATAAAAATATCAAA [CACACA_negctrl_site1125]”: 6.35. The same measure for “ATTTTAATAAAATATGTACACACATACACCCATATA [CACACA_site8326]”: 7.11; for “TGATATCTTAAGAAATGTACAAAGATATAACCATTT [XGTACX_site1913]”: 6.22. Regarding “CATACATAAATATAAACATGCATATATTTTTTTTAT [TGCATGCA_site616]”, the “gcPBM binding intensity (ln)” value was 6.33. For “TAAATAAAAAAAAATACACACATCTATATAAAATAT [CACACA_site3774]” the value was 6.3; for “GTATCAAAAGAATACACACACACATACCTATAAATA [CACACA_site7737]”, 6.85. The same measure for “AAAGGAAAAAAAGTAGCACACAAATATTTATAATAT [CACACA_site8772]”: 6.76; for “TGTATAACCTGTGTTACACACATTAAAATTTATATA [CACACA_site4449]”: 6.42; for “ATAAATGTGTTTATTTAACACACAAAAGAAAAAATA [CACACA_site8589]”: 6.6. For “GATATTTTTATTTGTTGTACTTAAGATAATAAATGA [XGTACX_site2891]” the value was 6.6.
